The results in this text go back to ChEMBL document CHEMBL4888484, “Replenishing the malaria drug discovery pipeline: Screening and hit evaluation of the MMV Hit Generation Library 1 (HGL1) against asexual blood stage Plasmodium falciparum ,using a nano luciferase reporter read-out” (2022).

The whole screen tested about 150,000 compounds, of which about 540 (0.36%) showed an effect of 50% or more. The list shows a part of the results.

The test relates to Plasmodium falciparum. The experiment in a line: Primary screen in NF54 nanoGlo assay, in single point, at 2uM, 72h; a lower Z score goes with more inhibition. The note with it: timepoint 72 hour. The class given is functional, Erythrocyte.
As a reminder, the % Inhibition is the relative decrease from the control value, in per cent. On to `CCCN1CCC(N2CCN(S(=O)(=O)c3ccc(Cl)cc3)CC2)CC1`, for which the “% Inhibition” value is listed as -12% and the Z score was found to be 1.79.
Take `C=CCn1c(=O)c2sc(N3CCCCC3)nc2n(CC(=O)Nc2cc(Cl)ccc2C)c1=O`: the “% Inhibition” value is on record as -43% and the Z score is on record as 3.8.
In the case of `CN(CCN1CCCCC1)c1cccc(C#N)n1`, the “% Inhibition” value is recorded as 1% and the Z score was -0.14.
The matching figures for `O=C1[C@@H]2C[C@@H](CN2CC2CCCCC2)N1c1ccccc1Cl`: -3% and 0.46.
For the molecule `CCOC1(CNC(=O)N[C@H]2CCn3ccnc32)CCCC1`, the “% Inhibition” value was 2% and the Z score is recorded as -0.34.
In the case of `Cn1cc(-c2ccc(C3(C#N)CCCC3)cc2)cn1`, the “% Inhibition” value is -7% and the Z score was determined as 0.96.
In the case of `COc1ccc2cc3n(c2c1)C[C@](C(=O)NC1CCCCCC1)(c1ccccc1)N(Cc1ccccc1F)C3=O`, the “% Inhibition” value is reported as 38% and the Z score is -5.47.
Regarding `COc1ccccc1N(CCn1cc(C#N)cn1)S(=O)(=O)c1ccc(F)cc1`, the “% Inhibition” value is reported as -6% and the Z score stood at 0.71.
`CCN(CC)C[C@H](O)COc1cc(CN2CCC3(CCCC3)C2)ccc1OC`: the “% Inhibition” value is listed as 4% and the Z score is given as -0.57.
`COc1ccccc1C(C)(C)Cn1nnnc1N1CCC(CO)CC1`: the “% Inhibition” value is -22% and the Z score was found to be 2.46.
Turning to `CCOc1ccc(CNC(=O)c2nccn2Cc2ccc(Cl)cc2)cc1`, the “% Inhibition” value is -12% and the Z score turned out to be 2.2.
As to `C[C@H](NCCn1cncn1)c1cccc(C2CC2)c1`, the “% Inhibition” value is -8% and the Z score was 1.3.
Regarding `COc1cn(CC(=O)NCCn2ccc3cc(Br)ccc32)c(C)cc1=O`, the “% Inhibition” value is given as -1% and the Z score is recorded as 0.18.
For `Cc1cnn(C2CCCC2)c1NC(=O)NC[C@@H](CO)Cc1ccco1`, the “% Inhibition” value was -9% and the Z score was 1.78.
As for `CC1CCN(C(=O)[C@@H]2CCCN2C(=O)c2ccccc2)CC1`, the “% Inhibition” value is -1% and the Z score was found to be 0.19.
For the molecule `O=C(Nc1ccccc1C(F)(F)F)N1CC(N2C(=O)C3CC=CCC3C2=O)C1` (configuration not stated), the “% Inhibition” value is listed as -17% and the Z score is recorded as 1.98.
As to `CC(C)CCC(=O)Nc1cc(Br)c[nH]c1=O`, the “% Inhibition” value is -16% and the Z score is 1.52.
Take `C[C@@H](CC(=O)N(C)c1ccccc1)NCc1cccnc1`: the “% Inhibition” value is given as -5% and the Z score is reported as 0.46.
For `CCN(C[C@H]1CCOC1)C(=O)Nc1cccnc1-n1cccn1`, the “% Inhibition” value is -1% and the Z score is 0.21.
The matching figures for `O=C(c1cc(=O)c(OCc2ccc(F)cc2)c[nH]1)N1CCN(c2ccccc2F)CC1`: 5% and -0.75.
As for `COCc1c(C(=O)NCCc2ccccc2F)cnn1-c1nccc(-c2cccs2)n1`, the “% Inhibition” value is given as -2% and the Z score came out at 0.25.
Take `CCS(=O)(=O)C1CN(C(=O)c2ccc3ncsc3c2)C1`: the “% Inhibition” value is on record as -4% and the Z score turned out to be 0.83.
Consider `Cc1cnc(CN2C[C@]3(CCCN(C(=O)c4cccnc4C)C3)CCC2=O)cn1`, for which the “% Inhibition” value was -10% and the Z score is 1.32.
Turning to `Cc1noc([C@@H]2CCCN2CCC(=O)N2CCN(C)CC2)n1`, the “% Inhibition” value was -13% and the Z score was 2.18.
With `CN(CCc1noc(C2CC2)n1)C(=O)[C@H]1CCOC1`, the “% Inhibition” value was 0% and the Z score is recorded as -0.05.
Take `CC(C)CCNC(=O)C1Cc2ccccc2N2CCN(Cc3ccccc3)CC12` (configuration not stated): the “% Inhibition” value is recorded as -12% and the Z score was found to be 1.11.
Regarding `O=C1C[C@]2(C(=O)N(Cc3ccccc3Cl)c3ccccc32)c2cn[nH]c2N1`, the “% Inhibition” value is recorded as 3% and the Z score was -0.34.
In the case of `Cc1cc2ncc(NC(=O)[C@@H]3COc4ccccc4O3)cn2n1`, the “% Inhibition” value was -4% and the Z score is 0.49.
The matching figures for `COC(=O)C1CCCC1NC(=O)CC1CCC(C(F)(F)F)CC1` (configuration not stated): -7% and 0.98.
The matching figures for `CN(Cc1coc(-c2ccc(S(C)(=O)=O)cc2)n1)C1CCCCC1S(C)(=O)=O` (configuration not stated): 9% and -0.97.
In the case of `O=C(Cc1csc(-c2cccnc2)n1)N1CC(S(=O)(=O)N2CCOCC2)C1`, the “% Inhibition” value is -7% and the Z score is 0.85.
The matching figures for `COc1ccc(CNC[C@H]2CCCO2)cc1OCc1ccco1`: 4% and -0.59.
The like results for `Cc1ccc(CC[C@H]2Nc3ccccc3C(c3ccccc3)(c3ccccc3)O2)o1` were, in that order, 81% and -13.4.
The matching figures for `Cc1cccc(CN[C@H]2CC(=O)N(CCN3CCOCC3)C2)c1C`: -5% and 0.62.
For `Nc1cc(Cl)ccc1OC[C@H]1CCCCO1`, the “% Inhibition” value is reported as -6% and the Z score came out at 1.15.
The like results for `O=C(N[C@H]1COCC[C@@H]1O)c1ccc2nnnn2c1` were, in that order, -21% and 1.83.
The matching figures for `COc1ccc(CNC(=O)c2cc(-c3ccccc3)ns2)cc1`: -16% and 2.
On to `C=CCCS(=O)(=O)NCc1ccncc1`, for which the “% Inhibition” value came to 32% and the Z score is -4.68.
As for `COc1ccc(CN(C)C(=O)NC(C)C)cc1O`, the “% Inhibition” value stood at 12% and the Z score is recorded as -1.88.
Turning to `COCCn1ccc2cc(C(=O)N[C@H]3CCCc4c3[nH]c3ccc(OC)cc43)ccc21`, the “% Inhibition” value is on record as -13% and the Z score is 1.62.
As to `CCc1nnc(CNS(=O)(=O)c2ccc(C(=O)N3CCCC3)cc2)s1`, the “% Inhibition” value is recorded as -11% and the Z score came to 1.9.
